Test results taken from publication PMC9512837, “The efficacy of receptor tyrosine kinase EphA2 autophosphorylation increases with EphA2 oligomer size” (The Journal of Biological Chemistry, 2022).

What was measured:
[1] = target: the molecule itself; assay: fluorescence intensity fluctuation (FIF) spectrometry; EphA2-eYFP in the plasma membrane of HEK293T cells, confocal imaging, hypo-osmotic medium, whole membrane, 15 x 15 pixel segments; no ligand
[2] = target: the molecule itself; assay: fluorescence intensity fluctuation (FIF) spectrometry; EphA2-eYFP in the plasma membrane of HEK293T cells, confocal imaging, hypo-osmotic medium, whole membrane; with 1200 nM Dimer 2
[3] = target: the molecule itself; assay: fluorescence intensity fluctuation (FIF) spectrometry; augmented FIF on the high-intensity puncta (SLIC algorithm), HEK293T cells; with Dimer 5
[4] = target: the molecule itself; assay: fluorescence intensity fluctuation (FIF) spectrometry; augmented FIF on the high-intensity puncta (SLIC algorithm), HEK293T cells; with m-ephrinA1

B1: EphA2-eYFP (receptor)
chain: [about 500 residues not shown]IGGVAVGVVLLLVLAGVGFFIHRRRKNQRARQSPEDVYFSKSEQLKPLKTYVDPHTYEDPNQAVLKFTTEIHPSCVTRQKVIGAGEFGEVYKGMLKTSSGKKEVPVAIKTLKAGYTEKQRVDFLGEAGIMGQFSHHNIIRLEGVISKYKPMMIITEYMENGALDKFLREKDGEFSVLQLVGMLRGIAAGMKYLANMNYVHRDLAARNILVNSNLVCKVSDFGLSRVLEDDPEATYTTSGGKIPIRWTAPEAISYRKFTSASDVWSFGIVMWEVMTYGERPYWELSNHEVMKAINDGFRLPTPMDCPSAIYQLMMQCWQQERARRPKFADIVSILDKLIRAPDSLKTLADFDPRVSIRLPSTSGSEGVPFRTVSEWLESIKMQQYTEHFMAAGYTAIEKVVQMTNDDIKRIGVRLPGHQKRIAYSLLGLKDQVNTVGIPI
notes: EphA2 receptor tyrosine kinase; also called receptor tyrosine kinase EphA2; source: HEK293T, transiently transfected (pcDNA3.1 (+)), in the plasma membrane of the cells; not shown: eYFP (via a 15 amino acid (GGS)5 flexible linker), C-terminal, kept
stoichiometry N [1]: 2
stoichiometry N [2]: > 2
fold increase of the mode of the brightness distribution, puncta against whole membrane [3]: 6 fold
fold increase of the mode of the brightness distribution, puncta against whole membrane [4]: 2 fold
